Source: patent US10294218B2 (VIROSTATICS SRL, priority 2012, dated 2019)

System: Primary T cells
Test: Cytotoxicity, percentage of viable cells by flow cytometry
Assay type: cell-based
Method: Primary T cells are cultured and treated with different concentrations of the test compound. Viability is analysed by measuring through flow cytometry based techniques the percentage of viable cells, compared to untreated control=100%). Toxic dose 50% (TD50) is calculated.
In Tables 2, 3 and 4, ND means Not Determined.

| Structure (SMILES) | TD50 (Toxic dose 50%) [µM] |
| --- | --- |
| COc1ccc(Nc2cc(-c3cc(F)ccc3OC)ncn2)cc1N [Example 75, N^1-[6-(5-Fluoro-2-methoxy-phenyl)-pyrimidin-4-yl]-4-methoxy-benzene-1,3-diamine] | 10 |
| COc1ccccc1-c1cc(Nc2ccc(F)c(Cn3cnc4ccccc43)c2)ncn1 [Example 40, N-(3-((1H-Benzo[d]imidazol-1-yl)methyl)-4-fluorophenyl)-6-(2-methoxyphenyl)pyrimidin-4-amine] | 0.4 |
| CCOc1ccccc1-c1cc(Nc2ccc(OC)c(N)c2)ncn1 [Example 62, N^1-[6-(2-Ethoxy-phenyl)-pyrimidin-4-yl]-4-methoxy-benzene-1,3-diamine] | 4 |
| COc1ccccc1-c1cc(Nc2cc(F)c(OC)c(C(N)=O)c2)ncn1 [Example 137, 3-Fluoro-2-methoxy-5-[6-(2-methoxy-phenyl)-pyrimidin-4-ylamino]-benzamide] | >2 |
| COc1ccc(Nc2cc(-c3ccccc3OC)ncn2)cc1OC(=O)C(C)(C)C [Example 26, 2-methoxy-5-(6-(2-methoxyphenyl)pyrimidin-4-ylamino)phenyl pivalate] | 6 |
| COc1ccc(Nc2cc(-c3cccc(F)c3OC)ncn2)cc1N [Example 81, N^1-[6-(3-Fluoro-2-methoxy-phenyl)-pyrimidin-4-yl]-4-methoxy-benzene-1,3-diamine] | 3 |
| COc1ccc(Nc2cc(-c3ccc(F)cc3OC)ncn2)cc1O [Example 123, 5-[6-(4-Fluoro-2-methoxy-phenyl)-pyrimidin-4-ylamino]-2-methoxy-phenol] | 7 |
| COc1ccccc1-c1cc(Nc2ccc(Cl)c(Cn3cnc4ccccc43)c2)ncn1 [Example 16, N-(3-((1H-benzo[d]imidazol-1-yl)methyl)-4-chlorophenyl)-6-(2-methoxyphenyl)pyrimidin-4-amine] | 1.5 |
| COc1ccc(Nc2cc(-c3cc(F)ccc3OC)ncn2)cc1C(N)=O [Example 127, 5-[6-(5-Fluoro-2-methoxy-phenyl)-pyrimidin-4-ylamino]-2-methoxy-benzamide] | 7 |
| CCOc1ccc(F)cc1-c1cc(Nc2ccc(OC)c(C(N)=O)c2)ncn1 [Example 131, 5-[6-(2-Ethoxy-5-fluoro-phenyl)-pyrimidin-4-ylamino]-2-methoxy-benzamide] | 2 |
| CCOc1ccc(Nc2cc(-c3ccc(F)cc3OC)ncn2)cc1N [Example 105, 4-Ethoxy-N^1-[6-(4-fluoro-2-methoxy-phenyl)-pyrimidin-4-yl]-benzene-1,3-diamine] | 7 |
| CCOc1cc(F)ccc1-c1cc(Nc2cc(C(N)=O)c(OC)cc2F)ncn1 [Example 147, 5-[6-(2-Ethoxy-4-fluoro-phenyl)-pyrimidin-4-ylamino]-4-fluoro-2-methoxy-benzamide] | 15 |
| COc1cccc(-c2cc(Nc3ccc(OC)c(N)c3)ncn2)c1 [Example 68, 4-Methoxy-N^1-[6-(3-methoxy-phenyl)-pyrimidin-4-yl]-benzene-1,3-diamine] | >10 |
| COC(=O)c1cc(Nc2cc(-c3ccccc3OC)ncn2)ccc1O [Example 21, Methyl 2-hydroxy-5-(6-(2-methoxyphenyl)pyrimidin-4-ylamino)benzoate] | >0.5 |
| COc1ccccc1-c1cc(Nc2ccc(N3CCOCC3)c(CO)c2)ncn1 [Example 19, (5-(6-(2-Methoxyphenyl)pyrimidin-4-ylamino)-2-morpholinophenyl)methanol] | >0.5 |
| COc1ccccc1-c1cc(Nc2ccc(Cl)c(C(=O)NN)c2)ncn1 [Example 7, 2-Chloro-5-(6-(2-methoxyphenyl)pyrimidin-4-ylamino)benzohydrazide] | >5 |
| COc1ccc(Nc2cc(-c3ccccc3OC)ncn2)cc1CNS(C)(=O)=O [Example 4, N-(2-Methoxy-5-(6-(2-methoxyphenyl)pyrimidin-4-ylamino)benzyl)methanesulfonamide] | 2.1 |
| CCOc1ccc(F)cc1-c1cc(Nc2cc(C(N)=O)c(OC)cc2F)ncn1 [Example 148, 5-[6-(2-Ethoxy-5-fluoro-phenyl)-pyrimidin-4-ylamino]-4-fluoro-2-methoxy-benzamide] | 1 |
| COc1cc(F)c(Nc2cc(-c3cc(F)ccc3OC)ncn2)cc1C(N)=O [Example 144, 4-Fluoro-5-[6-(5-fluoro-2-methoxy-phenyl)-pyrimidin-4-ylamino]-2-methoxy-benzamide] | 12 |
| CCOc1cc(F)ccc1-c1cc(Nc2cc(N)c(OC)c(F)c2)ncn1 [Example 89, N^1-[6-(2-Ethoxy-4-fluoro-phenyl)-pyrimidin-4-yl]-5-fluoro-4-methoxy-benzene-1,3-diamine] | >20 |
| COc1cc(F)ccc1-c1cc(Nc2cc(F)c(OC)c(C(N)=O)c2)ncn1 [Example 138, 3-Fluoro-5-[6-(4-fluoro-2-methoxy-phenyl)-pyrimidin-4-ylamino]-2-methoxy-benzamide] | >20 |

| Structure (SMILES) | TD50 (Toxic dose 50%) [µM] |
| --- | --- |
| CCOc1ccc(Nc2cc(-c3ccccc3OC)ncn2)cc1Cn1cnc2ccccc21 [Example 39, N-(3-((1H-Benzo[d]imidazol-1-yl)methyl)-4-ethoxyphenyl)-6-(2-methoxyphenyl)pyrimidin-4-amine] | 0.6 |
| COc1ccc(Nc2cc(-c3ccccc3OC)ncn2)cc1Cn1cnc2ccccc21 [Example 31, N-(3-((1H-Benzo[d]imidazol-1-yl)methyl)-4-methoxyphenyl)-6-(2-methoxyphenyl)pyrimidin-4-amine] | 1.8 |
| COc1ccccc1-c1cc(Nc2ccc(N3CCN(C)CC3)c(CO)c2)ncn1 [Example 17] | >0.5 |
| COc1ccccc1-c1cc(Nc2ccc(C(N)=O)c(Cl)c2)ncn1 [Example 132, 2-Chloro-4-[6-(2-methoxy-phenyl)-pyrimidin-4-ylamino]-benzamide] | >10 |
| COc1ccc(Nc2cc(-c3ccccc3OC)ncn2)cc1NS(=O)(=O)NC1CCCCC1 [Example 13, (2-Methoxy-5-(6-(2-methoxyphenyl)pyrimidin-4-ylamino)phenyl) (cyclohexylsulfamoyl)amine] | 5 |
| COc1ccc(Nc2cc(-c3ccccc3OC)ncn2)cc1C(=O)NCc1ccccc1 [Example 23, N-Benzyl-2-methoxy-5-(6-(2-methoxyphenyl)pyrimidin-4-ylamino)benzamide] | >0.5 |
| COc1ccccc1-c1cc(Nc2cc(N)c(OC)c(F)c2)ncn1 [Example 88, 5-Fluoro-4-methoxy-N^1-[6-(2-methoxy-phenyl)-pyrimidin-4-yl]-benzene-1,3-diamine] | >20 |
| COc1ccc(Nc2cc(-c3ccccc3OC)ncn2)cc1O [Example 32, 2-Methoxy-5-(6-(2-methoxyphenyl)pyrimidin-4-ylamino)phenol] | 20 |
| COc1ccc(Nc2cc(-c3cc(F)c(F)cc3OC)ncn2)cc1N [Example 83, N^1-[6-(4,5-Difluoro-2-methoxy-phenyl)-pyrimidin-4-yl]-4-methoxy-benzene-1,3-diamine] | 12 |
| COc1ccc(-c2cc(Nc3ccc(OC)c(N)c3)ncn2)cc1 [Example 66, 4-Methoxy-N^1-[6-(4-methoxy-phenyl)-pyrimidin-4-yl]-benzene-1,3-diamine] | >10 |
| COc1ccc(Nc2cc(-c3ccccc3OC)ncn2)cc1CNCc1ccccc1 [Example 1, N-(3-((Benzylamino)methyl)-4-methoxyphenyl)-6-(2-methoxyphenyl)pyrimidin-4-amine] | 3.5 |
| CCOc1ccccc1-c1cc(Nc2cc(C(N)=O)c(OC)cc2F)ncn1 [Example 145, 5-[6-(2-Ethoxy-phenyl)-pyrimidin-4-ylamino]-4-fluoro-2-methoxy-benzamide] | 15 |
| COc1ccccc1-c1cc(Nc2ccc(OC)c([N+](=O)[O-])c2)ncn1 [Example 11, N-(4-Methoxy-3-nitrophenyl)-6-(2-methoxyphenyl)pyrimidin-4-amine] | >1.5 |
| COC(=O)c1ccc(Nc2cc(-c3ccccc3OC)ncn2)cc1OC [Example 133, 2-Methoxy-4-[6-(2-methoxy-phenyl)-pyrimidin-4-ylamino]-benzoic Acid Methyl Ester] | >10 |
| CCOc1cc(F)ccc1-c1cc(Nc2ccc(OC)c(N)c2)ncn1 [Example 73, N^1-[6-(2-Ethoxy-4-fluoro-phenyl)-pyrimidin-4-yl]-4-methoxy-benzene-1,3-diamine] | 6 |
| CNS(=O)(=O)Nc1cc(Nc2cc(-c3ccccc3OC)ncn2)ccc1OC [Example 10, (2-Methoxy-5-(6-(2-methoxyphenyl)pyrimidin-4-ylamino)phenyl)(methylsulfamoyl)amine] | 3 |
| COc1ccc(Nc2cc(-c3ccccc3OC)ncn2)cc1CN(C)C [Example 35, N-(3-((Dimethylamino)methyl)-4-methoxyphenyl)-6-(2-methoxyphenyl)pyrimidin-4-amine] | 3 |
| COc1cc(F)c(Nc2cc(-c3ccc(F)cc3OC)ncn2)cc1C(N)=O [Example 146, 4-Fluoro-5-[6-(4-fluoro-2-methoxy-phenyl)-pyrimidin-4-ylamino]-2-methoxy-benzamide] | 10 |
| COc1ccc(Nc2cc(-c3ccc(F)cc3OC(C)C)ncn2)cc1N [Example 86, N^1-[6-(4-Fluoro-2-isopropoxy-phenyl)-pyrimidin-4-yl]-4-methoxy-benzene-1,3-diamine] | 4 |
| CCOc1ccc(Nc2cc(-c3ccc(F)cc3OC)ncn2)cc1O [Example 114, 2-Ethoxy-5-[6-(4-fluoro-2-methoxy-phenyl)-pyrimidin-4-ylamino]-phenol] | 10 |
| COc1cc(Nc2cc(-c3ccccc3OC)ncn2)ccc1C(N)=O [Example 136, 2-Methoxy-4-[6-(2-methoxy-phenyl)-pyrimidin-4-ylamino]-benzamide] | >2 |
